Data from the supplement of paper PMC5919970.
Where a name gives a salt, the structure may show the parent alone. Whole data set: some 2,000 compounds, median “fractional viability relative to vehicle” near 0.92, cut for the lowest 2% near 0.11. The list shows a part of the results.

Test system: TYKNU
Assay: fractional viability relative to vehicle; TYKNU is a high-grade serous ovarian cancer line; higher = less growth inhibition
Conditions: 72 h, genotype: OPA1 knockout (sgOPA1 #2)
Outline: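 TYKNU control cells or lentiCRISPRv2 knockout derivatives were plated at 500 cells per well in duplicate into drug-stamped 384-well plates holding a ~2100-compound library at 2 or 10 μM. Culture was in RPMI 1640 with 10% FBS at 37 °C in 5% CO2, with 72 h of drug treatment. Viability was measured by Cell Titer Glo luminescence, and the averaged duplicate treatment wells were normalised to duplicate control wells at the same plate position.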

Row | Compound | fractional viability (2uM) | fractional viability (10uM)
1 | COc1cccc2c1C(=O)c1c(O)c3c(c(O)c1C2=O)C[C@@](O)(C(C)=O)C[C@@H]3O[C@H]1C[C@H](N)[C@H](O)[C@H](C)O1 [Daunorubicin HCl] | 0.568 | 0.108
2 | CNC(=O)c1cc(Oc2ccc(NC(=O)Nc3ccc(Cl)c(C(F)(F)F)c3)cc2)ccn1 [Sorafenib] | 0.784 | 0.543
3 | CNC(=O)c1cc(Oc2ccc(NC(=O)Nc3ccc(Cl)c(C(F)(F)F)c3)cc2)ccn1 [Sorafenib Tosylate] | 0.843 | 0.637
4 | CNC(=O)c1ccccc1Nc1cc(Nc2ccc(N3CCOCC3)cc2OC)ncc1C(F)(F)F | 0.696 | 0.465
5 | OCc1ccccc1O[C@@H]1O[C@H](CO)[C@@H](O)[C@H](O)[C@H]1O [Salicin] | 1.02 | 0.976
6 | C=CC1=C(C(=O)O)N2C(=O)[C@@H](NC(=O)/C(=N\O)c3csc(N)n3)[C@H]2SC1 [Cefdinir] | 0.982 | 0.852
7 | CN1C(CCl)Nc2cc(Cl)c(S(N)(=O)=O)cc2S1(=O)=O (stereo not given) [Methyclothiazide] | 0.816 | 0.913
8 | CC(=O)NS(=O)(=O)c1ccc(N)cc1 [Sulfacetamide Sodium] | 1.01 | 1.03
9 | Cc1cn([C@H]2C=C[C@@H](CO)O2)c(=O)[nH]c1=O [Stavudine (d4T)] | 1.19 | 1.07
10 | C=C1CC[C@@H]2[C@](C)(CO)[C@H](O)CC[C@@]2(C)[C@@H]1C/C=C1/C(=O)OC[C@H]1O [Andrographolide] | 0.622 | 0.354
11 | Cc1ncc(-c2ccnc(Nc3ccc(S(C)(=O)=O)cc3)n2)n1C(C)C | 0.256 | 0.363
12 | N#Cc1ccc(-c2csc(NN=C3CCCC3)n2)cc1 [Remodelin] | 0.882 | 1.03
13 | O=C(/C=C/c1ccc(O)cc1)c1ccc(O)cc1O [Isoliquiritigenin] | 1.03 | 0.85
14 | CS(=O)(=O)OCCCCOS(C)(=O)=O [Busulfan] | 0.897 | 0.993
15 | N#CCNC(=O)c1ccc(-c2ccnc(Nc3ccc(N4CCOCC4)cc3)n2)cc1 | 1.15 | 0.327
16 | OCc1c[nH]c2ccccc12 [Indole-3-carbinol] | 1.08 | 1.14
17 | CC(C)(CO)c1cc2cc(NC(=O)C3(c4ccc5c(c4)OC(F)(F)O5)CC3)c(F)cc2n1C[C@@H](O)CO | 0.884 | 1.04
18 | Cc1c(CN2CCN(C(=O)[C@H](C)O)CC2)sc2c(N3CCOCC3)nc(-c3cnc(N)nc3)nc12 | 0.392 | 0.376
19 | CN1CCc2c(c3ccccc3n2Cc2ccc(C(=O)NO)cc2)C1 [Tubastatin A] | 0.869 | 0.846
20 | CN1CCc2c(c3ccccc3n2Cc2ccc(C(=O)NO)cc2)C1 [Tubastatin A HCl] | 0.907 | 0.841
21 | CC[C@@H]1C(=O)OC[C@@H]1Cc1cncn1C [Pilocarpine HCl] | 0.826 | 0.786
22 | COc1nc(OCc2cccc(-c3ccccc3)c2C)ccc1CNCCNC(C)=O [PD-1/PD-L1 inhibitor 2] | 0.912 | 0.487
23 | CNc1cc(-c2cccc(Cl)c2Cl)nc(N)n1 | 0.476 | 0.368

Row | Compound | fractional viability (2uM) | fractional viability (10uM)
24 | CCC(C)(Oc1ccc(C2(c3ccc(OC(C)(CC)C(=O)O)cc3)CCCCC2)cc1)C(=O)O (stereo not given) [Clinofibrate] | 0.938 | 0.887
25 | C[C@@H](O[C@H]1OCCN(Cc2nn(P(=O)(O)O)c(=O)[nH]2)[C@H]1c1ccc(F)cc1)c1cc(C(F)(F)F)cc(C(F)(F)F)c1 [Fosaprepitant dimeglumine salt] | 1.02 | 0.832
26 | c1nc2c(NC3CCCCC3)nc(Nc3ccc(N4CCOCC4)cc3)nc2[nH]1 [Reversine] | 0.571 | 0.342
27 | COc1cc2nccc(Oc3ccc(NC(=O)NC4CC4)c(Cl)c3)c2cc1C(N)=O [Lenvatinib (E7080)] | 1.18 | 0.967
28 | C[C@H](CCC(=O)O)[C@H]1CC[C@H]2[C@@H]3[C@@H](O)C[C@@H]4C[C@H](O)CC[C@]4(C)[C@H]3CC[C@]12C [Ursodiol] | 1.21 | 0.876
29 | O=C(Nc1ccncc1)c1cc([N+](=O)[O-])ccc1Cl | 1.01 | 0.824
30 | O=C(CCCN1CCN(c2ccccn2)CC1)c1ccc(F)cc1 [Azaperone] | 0.827 | 1.13
31 | COCCCN1CCC(NC(=O)c2cc(Cl)c(N)c3c2OCC3)CC1 [Prucalopride] | 1.02 | 1.04
32 | COCCCN1CCC(NC(=O)c2cc(Cl)c(N)c3c2OCC3)CC1 [Prucalopride Succinat] | 0.919 | 0.951
33 | COC(=O)C1=C(C#N)NC(C)=C(C(=O)OC(C)C)C1c1cccc([N+](=O)[O-])c1 (stereo not given) [Nilvadipine] | 0.877 | 0.905
34 | CNc1nc(Nc2cn(C(C)(C)C#N)nc2C)ncc1C(F)(F)F | 0.801 | 0.885
35 | C=CC(=O)N1C/C(=C\c2ccc([N+](=O)[O-])cc2)C(=O)/C(=C/c2ccc([N+](=O)[O-])cc2)C1 | 0.0989 | 0.111
36 | Cc1cc(CN2CCN(c3c(Br)cnc4nc(-c5ccc(N6CCN(C)CC6)cc5)[nH]c34)CC2)no1 | 0.875 | 0.127
37 | COc1ccc(C2CC(=O)c3c(O)cc(OC4OC(COC5OC(C)C(O)C(O)C5O)C(O)C(O)C4O)cc3O2)cc1OC (stereo not given) [Methyl-Hesperidin] | 0.971 | 1.13
38 | CN(C)C(=O)[C@H](O)[C@H](Cc1ccccc1)NC(=O)c1cc2cc(Cl)ccc2[nH]1 | 1.01 | 1.01
39 | O=C(Oc1cc(S(=O)(=O)c2ccccc2)ccc1[N+](=O)[O-])c1ccc(Cl)cc1 | 0.86 | 0.716
40 | N[C@@H](Cc1cc(I)c(Oc2ccc(O)c(I)c2)c(I)c1)C(=O)O [Liothyronine Sodium] | 0.886 | 0.836
41 | CCN1CCN(Cc2ccc(C(=O)Nc3ccc(C)c(Oc4ccc5c(c4)CC(=O)N5)c3)cc2C(F)(F)F)CC1 | 0.782 | 0.462
42 | Cc1ccc(=O)n(-c2ccccc2)c1 [Pirfenidone] | 0.943 | 0.854
43 | Cc1c(-c2cnccn2)ssc1=S [Oltipraz] | 0.969 | 0.849
44 | COc1ccc(-n2c(SCCCN3C(=O)c4cccc5cccc(c45)C3=O)nnc2-c2ccncc2)cc1 | 0.913 | 0.874
45 | Cc1cccc(CC(=O)N2CCc3c2ccc(-c2cn(C)c4ncnc(N)c24)c3F)n1 | 0.931 | 1.08
